Values quoted from earlier work, collected in paper PMC4680881 (Scientific Reports, 2015).

Conditions: cited from earlier work

| Structure (SMILES) | log P |
| --- | --- |
| COc1ccc(/C=C/c2cc(=O)c3cc(I)ccc3o2)cc1OC [SC-(OMe)2, (E)-6-Iodo-2-(3,4-dimethoxystyryl) chromone] | 2.14 |
| CNc1ccc(/C=C/c2cc(=O)c3cc(I)ccc3o2)cc1 [SC-NHMe, (E)-6-Iodo-2-(4-(methylamino)styryl)-chromone] | 2.15 |
| COc1ccc(/C=C/c2cc(=O)c3cc(I)ccc3o2)cc1 [SC-OMe, (E)-6-Iodo-2-(4-methoxystyryl) chromone] | 2.15 |
